The source of these data is PubChem BioAssay AID488969 (Vanderbilt High Throughput Screening Facility, 2010).

The structures appear in SMILES notation. Over roughly 110,000 compounds, “z-score” has its median near -0.1; the highest 2% begin near 2. Some of the results follow. The source made the active and inactive calls.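 The calls were made as follows: active = z-score in the third read window above 3 or below -3; inactive = the rest.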

The target in the experiment is Metabotropic glutamate receptor 8 (Rattus norvegicus) (UniProt P70579). In words: mGluR8 Gi/Go-coupled signaling modulation – cell-based, rat, thallium flux, HTS, primary screen (AID 488969). The following applies: HEK293 rat mGluR8, GIRK (G protein-gated inwardly rectifying potassium channel) thallium flux, FluoZin2; at 10 µM; stronger effect = higher value; submaximal glutamate (EC20) added with thallium.
Sequence of UniProt P70579 (P70579 whole entry, looked up): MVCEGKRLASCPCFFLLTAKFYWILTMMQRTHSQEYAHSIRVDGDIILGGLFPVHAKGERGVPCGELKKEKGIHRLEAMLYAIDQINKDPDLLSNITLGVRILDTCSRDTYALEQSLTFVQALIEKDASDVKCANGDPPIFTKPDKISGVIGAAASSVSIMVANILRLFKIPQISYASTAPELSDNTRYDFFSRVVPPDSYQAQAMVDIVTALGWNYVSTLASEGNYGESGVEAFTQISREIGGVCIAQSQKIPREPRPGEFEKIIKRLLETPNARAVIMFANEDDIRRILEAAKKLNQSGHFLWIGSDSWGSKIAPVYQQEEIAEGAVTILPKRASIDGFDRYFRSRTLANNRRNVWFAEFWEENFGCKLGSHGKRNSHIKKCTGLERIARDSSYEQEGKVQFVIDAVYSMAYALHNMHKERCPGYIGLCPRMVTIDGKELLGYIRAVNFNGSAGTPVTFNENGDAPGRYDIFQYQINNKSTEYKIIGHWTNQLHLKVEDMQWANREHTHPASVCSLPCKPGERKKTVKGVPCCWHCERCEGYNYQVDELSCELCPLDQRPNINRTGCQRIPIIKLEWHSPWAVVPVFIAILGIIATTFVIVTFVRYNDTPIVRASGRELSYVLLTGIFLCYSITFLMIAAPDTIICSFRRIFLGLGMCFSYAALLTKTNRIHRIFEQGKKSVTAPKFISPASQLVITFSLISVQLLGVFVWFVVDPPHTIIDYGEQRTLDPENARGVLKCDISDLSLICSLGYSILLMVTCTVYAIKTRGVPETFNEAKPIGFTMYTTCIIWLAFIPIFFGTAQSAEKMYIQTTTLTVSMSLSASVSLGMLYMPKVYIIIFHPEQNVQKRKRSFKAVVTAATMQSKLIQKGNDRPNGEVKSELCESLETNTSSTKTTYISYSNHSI
In turn, `COc1cc(C)ccc1OCCOc1ccccc1Cl` showed a z-score of -0.321.
`Cc1ccc(C(=O)Nc2sc(C)c(C)c2C(=O)c2ccccc2)cc1` displayed a z-score of -0.0387.
With `C=CCNC(=O)C(=O)N/N=C/c1ccco1`, the z-score stood at 0.424.
As for `CC(=O)N(CCc1ccccc1C)Cc1cc2cc3c(cc2[nH]c1=O)OCO3`, the figure is -0.227; as for `CCCCn1cnc2sc(-c3ccccc3)cc2c1=O`, -0.421; as for `Cc1cc(C)cc(NS(=O)(=O)c2ccc3[nH]cc(C(=O)N4CCc5ccccc54)c(=O)c3c2)c1`, 0.0917.
`COc1cc(-c2cc(OC)c3c(C)oc(C)c3c(=O)c2)ccc1O` had a z-score of 0.102.
With `O=C(NCC1CCCO1)c1onc(CSc2cccc3ccccc23)c1C(=O)O` (stereo not drawn) the figure was -0.156; with `O=S(=O)(NC1CCCCC1Sc1ncccn1)c1ccccc1` (stereo not drawn), -0.261.
With `Cc1cc(C)cc(OCC(O)CN2C(=O)NC(C)(C)C2=O)c1` (stereo not drawn) the figure was -0.29; with `O=C(Nc1ccccc1)N(CCCN1CCOCC1)Cc1cccs1`, -0.217.
As for `Cc1cc(N(CC(=O)NC2CC2)S(C)(=O)=O)ccc1Br`, the figure is -0.045; as for `CC(C)(C)c1ccc(C(=O)Nc2nnc(Cc3c[nH]c4ccccc34)s2)cc1`, -0.233; as for `CC(=O)N=c1sccn1CC(=O)c1ccc([N+](=O)[O-])cc1`, -0.139.
For `Cc1cc(C)cc(NC(=S)NCc2cccn2C)c1`, the z-score is -0.08.
Take `COC(=O)c1ccc(Cl)cc1NC(=O)/C=C/c1ccc(C)o1`: the z-score is 0.113.
For the compound `CC(C)(C)OC(=O)N1CC2Cc3[nH]c(=O)ccc3C(C2)C1` (stereo not drawn), the z-score came out at 1.92.
`CSc1nc2ccccc2n1C(=O)Oc1ccccc1`: the z-score is -0.0317.
With `O=C(COc1ccccc1)NCC(c1cccs1)N1CCOCC1` (stereo not drawn) the figure was 0.0098; with `O=C(NC1CCCCCC1)c1ccc(CN2CCOCC2)cc1`, -0.356.
As for `O=C(CSc1nc2ccccc2[nH]1)N1CCCCC1`, the figure is 0.394; as for `CCN(CC)S(=O)(=O)c1cccc(C(=O)N[C@H](C(=O)Nc2nc3ccc(F)cc3s2)C(C)C)c1`, -0.139; as for `O=C(NC1CC1)c1cc2c(s1)-c1ccccc1OC2`, -0.272.
`Cc1sc2cc(-c3cccc([N+](=O)[O-])c3)c(-c3cccc([N+](=O)[O-])c3)c[n+]2c1C` showed a z-score of 0.449.
With `Cc1c2ccccc2nc2c(F)c(NCCO)c(F)c(F)c12` the figure was -0.746; with `CC(C)(C)NC(=O)C(=O)NNC(=O)c1ccccc1`, 1.57; with `CCN(Cc1ccccc1)C(=O)CCc1nc(-c2ccc(C)cc2)no1`, 1.2.
`CCC(CC)C(=O)NCCc1ccc(S(N)(=O)=O)cc1`: the z-score amounted to 0.0753.
As for `O=S(=O)(c1ccc(Cl)nc1)N1CCCc2ccccc21`, the figure is 0.245.
Regarding `O/N=C/c1cc(Br)cc(Br)c1OCc1ccccc1`, the z-score was -0.0835.
In turn, `O=C(C1CCCN(c2ncccn2)C1)N1CCc2ccccc21` (stereo not drawn) returned a z-score of -0.151.
With `CC(=O)N1CCc2cc(S(=O)(=O)CCC(=O)N3CCc4ccccc4C3)ccc21` the figure was 0.389.
As for `CCn1c(O)c(N=NC(=O)CNC(=O)/C=C/c2ccco2)c2ccccc21`, the z-score is -0.547.
Compound `CCn1c(CNc2ccc(C(=O)O)cc2)nc2ccccc21` showed a z-score of -0.308.
Regarding `O=S(=O)(Nc1ccc(N2CCCCC2)cc1)c1ccc(F)c(F)c1`, the z-score was -0.478.
As to `O=C(O)c1cc(NCc2ccc(F)cc2)ccc1N1CCOCC1`, the z-score is -0.946.
With `COC(=O)CNC(=O)c1ccccc1F` the figure was 0.0789; with `COc1cc(NC(=O)COc2ccc(F)cc2)nc(OC)n1`, -0.114; with `O=C(CN1C(=O)NC2(CCCCCC2)C1=O)N1CCN(S(=O)(=O)c2ccc(Cl)cc2)CC1`, -0.0991.
As for `O=C(c1ccco1)N1CCN(c2ncnc3c2nnn3Cc2ccccc2Cl)CC1`, the figure is 0.652; as for `CCOCCCNC(=S)NCCNc1nc2ccc(C)cc2cc1C#N`, -0.287.
As for `COc1ccc(OC)c(C(C)NC=O)c1` (stereo not drawn), the figure is -0.24; as for `CCn1ncc(Cl)c1C(=O)NC(C)c1ccccc1` (stereo not drawn), 0.00989.
Take `COc1cccc(-c2cc(C(=O)Nc3cccc(O)c3)no2)c1`: the z-score was -0.399.
As for `CCc1cccc(OCCCCN(CC)CC)c1`, the figure is 0.22; as for `CC(C)(C)c1ccc(/C=C/C(=O)Nc2ncccn2)cc1`, -0.179.
As for `CCOC(=O)c1cc(-c2cccs2)nc2onc(C)c12`, the figure is -1.14.
With `COCCNC(=O)c1c(CSc2ccc(F)cc2)noc1C(=O)NCc1ccccc1` the figure was -0.0143; with `COc1cccc(-c2cn3nc(C)c(C)nc3n2)c1`, 0.0814.
`Cc1cccc(OCCNC(=O)c2cc(-n3cnnc3)ccc2Cl)c1`: the z-score is -0.286.
With `COc1ccc(CN(C(=O)c2nsc(Cl)c2Cl)C(C(=O)NC2CCCCC2)c2ccc(OC)cc2)cc1` (stereo not drawn) the figure was -0.377.
As for `COc1cc(OC)cc(-c2nc(-c3ccccc3)no2)c1`, the figure is -0.0774; as for `COc1cc(CN2CCN(c3ccccc3F)CC2)cc(OC)c1O`, 0.519.
With `CCCC(C)NC(=O)COc1ccc(Sc2ccc(OCC(=O)NC(C)CCC)cc2)cc1` (stereo not drawn) the figure was -0.102; with `O=C(N/N=C/c1cc2c3c(c1O)CCCN3CCC2)c1ccccc1O`, 0.304; with `CCn1c(COc2ccc(C)cc2)nnc1SCC(=O)C(C)(C)C`, -0.467.
The compound `Cc1ccc(-c2noc(CN(C(=O)CCN3C(=O)c4ccccc4C3=O)C(C)C)n2)cc1` had a z-score of -0.0669.
As for `Cc1cc(C)c(C#N)c(SC2CCCCC2=O)n1` (stereo not drawn), the figure is -0.0872; as for `O=C1OCCC1Sc1nc2cc(Cl)ccc2n1Cc1ccccc1` (stereo not drawn), active: 6.69.
As for `O=C(NCCCN1CCCC1=O)c1cccc(C(F)(F)F)c1`, the figure is -0.564.
With `COc1ccc(C(OC(=O)c2c(C)noc2C)C(=O)NC2CCCC2)cc1` (stereo not drawn) the figure was 1.27; with `Cn1c(N)c(C(=O)Nc2ccc3ccccc3c2)sc1=S`, -0.2; with `CCOc1ccc(N(CC(=O)Nc2nccs2)S(=O)(=O)c2c(C)noc2C)cc1`, -0.177.
Compound `COc1ccc(-c2cnnn2-c2ccc(NC(=O)/C=C/c3ccc(OC)c(OC)c3)cc2)cc1` came in with a z-score of 0.0694.
The compound `Cc1ccc(OCCn2c(CCNC(=O)C(C)C)nc3ccccc32)cc1` displayed a z-score of 0.402.
Regarding `CCOc1ccc(S(=O)(=O)N2CCCCCC2)c2ccccc12`, the z-score is -0.161.
The compound `COc1cc2c(cc1OC)C(C)N(C(=O)C1COc3ccccc3O1)CC2` (stereo not drawn) had a z-score of -0.0167.
With `c1ccc(-c2csc3nnc(SCc4ccc5c(c4)OCO5)n23)cc1` the figure was -0.935; with `Cc1ccc(NC2c3ncccc3C(=O)N2c2ccccc2C)cc1C` (stereo not drawn), -0.167.
As for `CC1=NN(C(=O)c2ccc(C)o2)C(O)(c2ccccc2)C1` (stereo not drawn), the figure is 0.255.
As for `CCn1cc(C(=O)NCc2ccc3c(c2)OCO3)c2cc(OC)c(OC)cc2c1=O`, the figure is -0.471; as for `CN1C(=O)/C(=C/c2ccccc2OCc2ccccc2F)NC1=S`, 0.0517.
In the case of `CCNc1ccc(C(=O)OCC)cc1NC(=O)c1cccc(S(=O)(=O)N(C)c2ccccc2)c1`, the z-score came to 0.33.
